Laboratory results taken from US20130261137A1, “Methods, Compounds and Compositions Relating to Activating a Latent Virus” (ULC BUSINESS PLC, priority 2010, published 2013).
Where two headings read alike, the source gives them in different places.

System: KSHV RTA in JSC-1 PYFP cells

Structure (SMILES)	effect of inhibitor on KSHV RTA induction by 15026 (15026 0.8 μM, 40 h)	effect of inhibitor on KSHV RTA induction by 15026
O=C(NOC[C@H](O)CO)c1ccc(F)c(F)c1Nc1ccc(I)cc1F [PD0325901]	inhibited	–
CC(C)[C@H](NC(=O)c1ccc2ccccc2n1)C(=O)N[C@@H](CC(=O)O)C(=O)COc1c(F)cccc1F [Q-VD-OPH]	no effect	–
Nc1ncnc2c1ncn2[C@@H]1O[C@@H]2COP(O)(=S)O[C@H]2[C@H]1O (stereo partly shown) [Rp-cAMP]	no apparent effect	–
N#CC(=C(/N)Sc1ccccc1N)/C(C#N)=C(\N)Sc1ccccc1N [U0126]	–	reduced levels of RTA induction
